# In PubChem BioAssay AID504832 (National Center for Advancing Translational Sciences (NCATS), 2011):
# In all, about 310,000 compounds went through this assay and about 18,000 (5.8%) were called active. The shares of active, inactive and inconclusive entries below differ from those in the screen. Calls follow the shape of the dose curve; as a rule, active = well fitted inhibition curve with a large enough effect; inconclusive = small, poorly fitted or top-dose-only effect, or another doubt; inactive = no such curve, though single readings can be large or run the other way. No potency is given beside an inconclusive call; the fits are too rough.
# Experiment: Primary qHTS for delayed death inhibitors of the malarial parasite plastid, 48 hour incubation
# Settings: P. falciparum luciferase growth in erythrocytes; series mostly up to 28.7 µM
# Outline: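 Read-out is firefly luciferase luminescence from an integrated reporter in P. falciparum, so falling signal marks reduced parasite growth. Infected erythrocytes were at 2% hematocrit and 0.1% parasitemia (final) in Albumax-supplemented RPMI 1640.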
# % is scaled to controls: 0 for no effect and ±100 for the full control effect; potency is read from the fitted curve at half-maximal effect; tags tell the direction and shape of the fitted curve.
SMILES,Potency,"activity change, negative = inhibition"
Cc1c(C(=O)Nc2ccc(-c3nnc4n3CCCCC4)cc2)oc2c1ccc1ccccc12,"inconclusive [inhibitor, single point]",
Cc1ccc(CN2C(=O)C(Cc3ccccc3)Nc3ncnc(N4CCN(c5ccccc5)CC4)c32)cc1 (stereo unspecified),active: 1.85 µM,
CCOC(=O)N1CCN(C(=O)COc2ccccc2Cl)CC1,inactive,
Cc1nc(NCc2ccccc2)[nH]c(=O)c1CCC(C)C,"inconclusive [inhibitor, single point]",
C=CCNC(=O)c1oc2ccc(S(=O)(=O)N3CCCCC3)cc2c1C,inactive,
Cc1sc(NC(=O)CN2CCCC2)nc1-c1ccc2c(c1)CCN2C(=O)c1cccc(F)c1,"inconclusive [inhibitor, single point]",
C=CCNC(=O)c1oc2ccc(S(=O)(=O)N3CCC4(CC3)OCCO4)cc2c1C,"inconclusive [inhibitor, partial curve]",
CC1(C)Cc2c(C#N)c(NCCc3ccccc3)nc(-c3ccco3)c2CO1,inactive,
CCOC(=O)c1cc(C(O)(C(F)(F)F)C(F)(F)F)c(/N=C/N(C)C)o1,"inconclusive [inhibitor, full curve, poor fit]",
CC(=O)C1=C(C)NC(SCC(=O)c2ccc(C)cc2)=C(C#N)C1c1ccco1 (stereo unspecified),active: 9.28 µM,
O=C(c1ccc(NS(=O)(=O)c2cccc([N+](=O)[O-])c2)cc1)N1CCN(C(=O)c2ccco2)CC1,"inconclusive [inhibitor, single point]",
Cc1noc(C)c1CSc1nc2sc(C)c(C)c2c(=O)n1C1CCCC1,active: 4.15 µM,
CC(C)Nc1nc(N(c2ccccc2)c2ccccc2)nc(-n2ccnc2)n1,"inconclusive [inhibitor, full curve]",
COc1ccccc1-c1nnc2sc(-c3cnccn3)nn12,"inconclusive [inhibitor, partial curve]",
COc1ccc(C2(O)CCN(Cc3nnnn3Cc3ccc(C)cc3)CC2)cc1,"inconclusive [inhibitor, single point]",
CCC(=NCc1cc(OC)cc(OC)c1)c1c(O)n(C2CCCCC2)c(=O)[nH]c1=O,"inconclusive [inhibitor, partial curve, poor fit]",
Cc1nnc(NN)n(N)c1=O,inactive,
CC(C)c1ccc2c(c1)CCC1C(C)(CN)CCCC21C (stereo unspecified),"inconclusive [inhibitor, partial curve]",
CCCCn1c(=O)[nH]c(=O)c2c1nc(-c1ccc(OC)c(Br)c1)n2CC(C)C,"inconclusive [inhibitor, partial curve]",
CC(=O)NC(Cc1ccc(N(CCCl)CCCl)cc1)C(=O)NC(CC(C)C)C(=O)O (stereo unspecified),inactive,
CCN(CC)CCn1c(=S)[nH]c2cc(C(=O)NCc3ccc(C)cc3)ccc2c1=O,inactive,
COc1ccc(Oc2ccc(N/C=C3\CCCC3=O)cc2)cc1,"inconclusive [inhibitor, single point]",
COc1ccc(NS(=O)(=O)c2cccc(C(=O)NNC(=O)c3cc(S(N)(=O)=O)ccc3OC)c2)cc1,inactive,
CCC(NC(=O)c1ccccc1NC(=O)c1ccco1)C(=O)NNC(=O)c1ccc(OC)cc1 (stereo unspecified),inactive,

SMILES,Potency,"activity change, negative = inhibition"
COc1cc(CCC(=O)N2CCN(c3cccc(C)c3C)CC2)cc(OC)c1OC,"inconclusive [inhibitor, partial curve]",
CCCCCCCCCCOC(=O)NC1CCS(=O)(=O)C1 (stereo unspecified),inactive,
CC(=O)N(c1ccc(C)cc1)S(=O)(=O)c1ccc(Cl)cc1,inactive,
CCN1CCN(c2ncc(C(=O)N3CCCc4ccccc43)c3ccccc23)CC1,"inconclusive [inhibitor, partial curve]",
CCOC(=O)N1CCN(C(=O)CSc2nnc(-c3cccc(OC)c3)o2)CC1,active: 9.28 µM,
Cc1cc(N/N=C(/CCC(=O)O)C(=O)O)nc2ccccc12,inactive,
CC(CCc1ccccc1)NC(=S)NC(=O)c1ccco1 (stereo unspecified),,inactive: 6.58% [at 5.75 µM]
COc1cc(/C=C/C(=O)OCC(=O)N(C)CC(=O)Nc2ccc(F)cc2)ccc1OC(F)F,"inconclusive [inhibitor, single point]",
COc1ccc(C(C)=O)cc1COC(=O)CCNS(=O)(=O)c1ccc(C)c(C)c1,inactive,
COc1ccc(C)cc1S(=O)(=O)N(CC(=O)NC1CCCC1)c1ccc(F)cc1,inactive,
Cc1ccccc1-n1cc(C(=O)c2cc(Cl)ccc2O)cc(C#N)c1=O,active: 5.22 µM,
CC1(NC(=O)NCc2ccccc2)CCS(=O)(=O)C1 (stereo unspecified),inactive,
N#C/C(=C\c1ccccn1)c1ccccn1,"inconclusive [inhibitor, single point]",
CCOC(=O)c1[nH]c2ccc(OC)cc2c1NC(=S)N1CCN(c2cccc(C)c2C)CC1,"inconclusive [inhibitor, partial curve, poor fit]",
O=C(NC(=O)c1ccccc1O)c1ccc2c(c1)CCO2,"inconclusive [inhibitor, single point]",
COC(=O)C1=C(C(=O)OC)[C@@H]2N(C)c3ccc(OC)cc3[C@@]23C[C@@H](C(=O)OC)N(S(=O)(=O)c2ccc(OC)cc2)C3=N1,active: 9.28 µM,
Cc1ccc(NC(=O)c2cc(-c3cc(C)c(C)cc3O)n[nH]2)cc1C,active: 2.08 µM,
Cc1sc2nc(SCC(=O)NCc3ccco3)n(CCc3ccccc3)c(=O)c2c1C,active: 11.7 µM,
Cc1cc(C)c2c(c1)-c1cc(C)nn1C(c1ccc3c(c1)OCO3)N2 (stereo unspecified),"inconclusive [inhibitor, single point]",
CCOC(=O)C(C)N1N=C(/C=C/c2ccc(C)cc2)CCC1=O (stereo unspecified),inactive,
CCCc1cc(C(=O)Nc2cccc3ccccc23)n(C)n1,inactive,
CC1=CC(=C2C=CC(=O)C=C2)C=C(C)N1C,active: 7.38 µM,
Cc1c(C(=O)Nc2ccc(F)c(F)c2)oc2ccc(S(=O)(=O)N3CCCCC3)cc12,active: 13.1 µM,
COc1ccc2nc(C)cc(SCC(NC(C)=O)C(=O)OC(C)C)c2c1 (stereo unspecified),"inconclusive [inhibitor, single point]",

SMILES,Potency,"activity change, negative = inhibition"
CSCCCNC(=S)N1CCc2ccccc2C1,"inconclusive [inhibitor, single point]",
Cc1ccc(N(C)S(=O)(=O)c2cccc(C(=O)NC3CC(C)(C)NC(C)(C)C3)c2)cc1,"inconclusive [inhibitor, single point]",
CC(C)[C@H](Nc1ccc(S(=O)(=O)N2CCOCC2)cc1[N+](=O)[O-])C(=O)OCC(=O)N(C(C)C)C(C)C,"inconclusive [inhibitor, partial curve, poor fit]",
Cc1cc(=O)oc2ccc(OC(=O)CC(C)C)cc12,inactive,
COc1ccc(-c2cccc(C3CC=CC4C3C(=O)N(Cc3ccccc3)C4c3ccc4ccccc4c3)c2)cc1 (stereo unspecified),active: 9.28 µM,
CCCCC(O)(CCCC)C(=O)NN(C(=O)c1cccnc1Cl)c1ccccc1,"inconclusive [inhibitor, partial curve, poor fit]",
CCNc1nc(Cl)nc(-c2cn(-c3ccccc3)c3ccccc23)n1,"inconclusive [inhibitor, partial curve, poor fit]",
O=S(=O)(CC(c1ccccc1)N1CCCCC1)c1ccc(Cl)cc1 (stereo unspecified),inactive,
O=C(CN1CCOCC1)Nc1ccc([N+](=O)[O-])cc1Br,"inconclusive [inhibitor, partial curve]",
CC1(C)CC(=O)C2=C(C1)Nc1ccccc1NC2c1ccccc1F (stereo unspecified),"inconclusive [inhibitor, full curve, poor fit]",
CCCCn1c(=O)n(CC(=O)NCc2ccc(C)cc2)c(=O)c2c1nc(CO)n2CCC,"inconclusive [inhibitor, partial curve]",
CCOc1ccccc1NC(=O)c1c(NC(=O)CCC(=O)O)sc2c1CCCCC2,"inconclusive [inhibitor, single point]",
N/C(=N\OC(=O)CC(c1ccccc1)c1ccccc1)c1cccnc1,"inconclusive [inhibitor, single point]",
COc1ccc(C(=O)N/N=C/c2ccc(OC)c(COc3ccc(F)cc3F)c2)cc1,"inconclusive [inhibitor, single point]",
CC(=O)c1cccc(NC(=O)CN(c2ccc(C)cc2)S(=O)(=O)c2cccc3nonc23)c1,"inconclusive [inhibitor, partial curve, poor fit]",
COCCN1C=C(C(=O)OC)C(c2cc3c(cc2Br)OCO3)C(C(=O)OC)=C1,active: 5.86 µM,
COc1ccc(C(CNC(=O)c2ccco2)N2CCOCC2)cc1 (stereo unspecified),inactive,
S=c1[nH]nc(-c2ccc(Br)cc2)n1-c1ccc(Br)cc1,inactive,
O=C(COc1ccc(F)cc1)c1c(O)cc(O)cc1O,inactive,
Cc1cc(C)nc(NC2=NCCN2C(=S)Nc2ccc(C)c(C)c2)n1,"inconclusive [inhibitor, single point]",
Cc1ccccc1-c1nc2ccccc2c(=O)n1/N=C/c1ccccc1[N+](=O)[O-],"inconclusive [inhibitor, partial curve]",
CC(C)(C)n1nnnc1C(c1ccncc1)N(Cc1ccccc1)Cc1ccco1 (stereo unspecified),active: 13.1 µM,
CC(=O)N1c2ccc(S(=O)(=O)N3CCCC(C(=O)Nc4cccc(F)c4)C3)cc2CC1C (stereo unspecified),"inconclusive [inhibitor, partial curve]",
